# Among all 310,000 compounds or so, about 2,200 (0.71%) showed an effect of 50% or more. Effects have a minus sign here. The list shows a part of the results.
# Biological target: human ether-à-go-go-related gene (hERG) potassium channel (human, UniProt Q12809)
# Experiment: primary screen, population patch clamp on CHO cells stably expressing hERG
# Chain of human ether-à-go-go-related gene (hERG) potassium channel (Q12809 whole entry, looked up): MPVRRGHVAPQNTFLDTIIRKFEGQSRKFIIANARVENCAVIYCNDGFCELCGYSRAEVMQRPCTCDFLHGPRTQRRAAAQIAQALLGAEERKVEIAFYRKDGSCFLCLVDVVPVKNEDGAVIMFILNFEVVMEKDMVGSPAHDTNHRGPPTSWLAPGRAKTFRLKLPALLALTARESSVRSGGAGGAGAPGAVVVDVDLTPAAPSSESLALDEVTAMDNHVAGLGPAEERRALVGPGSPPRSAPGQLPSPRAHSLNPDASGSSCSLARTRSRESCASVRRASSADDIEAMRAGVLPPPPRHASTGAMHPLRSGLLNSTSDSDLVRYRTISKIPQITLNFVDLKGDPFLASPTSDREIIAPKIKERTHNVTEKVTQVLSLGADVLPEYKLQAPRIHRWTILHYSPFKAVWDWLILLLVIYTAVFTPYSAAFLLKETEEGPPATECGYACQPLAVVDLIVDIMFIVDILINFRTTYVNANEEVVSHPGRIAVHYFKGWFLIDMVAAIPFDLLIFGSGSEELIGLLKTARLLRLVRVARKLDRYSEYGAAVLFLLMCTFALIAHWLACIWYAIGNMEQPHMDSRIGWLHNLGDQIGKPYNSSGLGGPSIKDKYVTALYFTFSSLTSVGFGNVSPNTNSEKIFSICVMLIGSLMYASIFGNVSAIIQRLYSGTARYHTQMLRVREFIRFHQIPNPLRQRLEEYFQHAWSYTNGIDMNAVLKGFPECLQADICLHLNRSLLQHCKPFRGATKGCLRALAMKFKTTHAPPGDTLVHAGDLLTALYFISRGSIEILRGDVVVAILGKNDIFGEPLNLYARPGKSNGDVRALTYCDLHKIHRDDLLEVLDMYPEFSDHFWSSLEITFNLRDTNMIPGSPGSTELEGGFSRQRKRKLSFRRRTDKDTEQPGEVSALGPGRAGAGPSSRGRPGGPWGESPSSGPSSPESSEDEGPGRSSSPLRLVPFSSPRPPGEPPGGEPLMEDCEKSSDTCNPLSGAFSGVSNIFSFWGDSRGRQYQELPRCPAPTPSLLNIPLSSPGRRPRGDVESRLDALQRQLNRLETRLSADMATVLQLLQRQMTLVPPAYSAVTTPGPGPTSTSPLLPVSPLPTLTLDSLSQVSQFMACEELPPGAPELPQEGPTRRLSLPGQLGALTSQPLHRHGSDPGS
row,Structure (SMILES),"hERG current change (%, negative = inhibition) at 1uM [%]"
1,Cc1cccc(NC(=O)CN(C)S(=O)(=O)c2cccc3nsnc23)c1C,3.52
2,Cc1cccc(NC(=O)COc2ccc(/C=N\n3cnnc3)cc2)c1,-3.16
3,O=C(COc1ccccc1[N+](=O)[O-])OCCCOC(=O)COc1ccccc1[N+](=O)[O-],1.57
4,Cc1occc1C(=O)NNC(=S)NC(=O)COc1ccc(Cl)cc1Cl,3.27
5,Cc1ccc(N2CC(C(=O)Nc3cccnc3)CC2=O)cc1 (stereo not drawn),3.5
6,COc1ccc(NC(=O)c2[nH]c(C)c(C(C)=O)c2C)cc1S(=O)(=O)N1CCOCC1,4.45
7,COc1ccccc1Nc1nc2ccccc2n1C,8
8,O=C(NCc1ccccc1)/C(=C\c1ccc(O)cc1)NC(=O)c1ccco1,2.92
9,Cc1ccc(N(C(=O)c2csnn2)C(C(=O)NCc2ccccc2)c2cccnc2)cc1 (stereo not drawn),13.5
10,FC(F)(F)c1cc(C(F)(F)F)c2ccc(N3CCN(c4ccc(Cl)cc4)CC3)nc2n1,6.03
11,CNC(=S)N(Cc1ccccc1)Cc1cccnc1,14.1
12,CS(=O)(=O)N(CC(=O)N1CCOCC1)c1cccc([N+](=O)[O-])c1,6.43
13,Cl.Nc1ccc(N(CCO)CCO)cc1,13.7
14,CCCCn1c(SCc2nc(N)nc(N3CCCCC3)n2)nc2c1c(=O)n(C)c(=O)n2C,8.65
15,CNc1ccccc1C(=O)OCC(C)=O,12.9
16,COC(=O)C1=C(c2ccc(F)cc2OCc2ccccc2)C[C@@H]2CC[C@H]1N2C(=O)NCc1ccc(C)cc1,12.6
17,O=c1c2ccccc2cnn1Cc1n[nH]c(=S)n1-c1ccc(F)cc1,12.6
18,CC1=CC(=NOC(=O)c2cccc([N+](=O)[O-])c2)C=C(C)C1=O,14.1
19,CCN(C(=O)C1CCCN1S(=O)(=O)c1cccc2nsnc12)c1ccccc1 (stereo not drawn),5.18
20,Cc1oc2ccc(O)cc2c1C(=O)c1ccc(Cl)cc1,12.8
21,O=C1CCCN1CN(C(=O)c1ccccc1)c1ccc(F)cc1,12.2
22,CCOc1ccc(NC(=O)N2CCc3ccccc3C2)cc1,8.42

row,Structure (SMILES),"hERG current change (%, negative = inhibition) at 1uM [%]"
1,C/C(=N\O)c1cccc(Br)c1,13.7
2,Cc1ccnc(NS(=O)(=O)c2ccc(NC(=O)C3CCCCC3)cc2)n1,16.7
3,COc1cc(C2Nc3ccccc3C(=O)N2NS(C)(=O)=O)ccc1O (stereo not drawn),11.3
4,Cc1[nH+]csc1CCOC(=O)c1ccccc1.[Cl-],19.7
5,CC(C)(C)NC(=O)CSC(=Nc1ccc(F)cc1)NC#N,2.78
6,Cc1cc(C)c(C(N)=O)c(Cl)n1,18
7,COc1ccc(NC(=O)NNC(=O)CCc2ccc(O)c(O)c2)cc1OC,-3.49
8,CCNc1nc(NCC)nc(OCC(=O)O)n1,14.2
9,Cc1cccc(S(=O)(=O)Nc2ccc(-c3ccc4nncn4n3)cc2)c1,-85.6
10,Fc1ccc(C2N(c3ccccc3)C(=S)N3CCCN23)cc1 (stereo not drawn),3.18
11,CCC(=O)c1ccc(OCC(=O)Nc2ccccc2N2CCOCC2)cc1,7.05
12,CCc1nnc(NCn2nc(C)cc2C)s1,9.58
13,COc1ccc(-c2c(C)nc(N)nc2-c2ccc(OC)cc2O)cc1,17.2
14,COc1ccc(/C(N)=N/OC(=O)CSc2ccc(C)cc2)cc1OC,5.19
15,CC(C)(C)OC(=O)CNC(=O)c1[nH]cnc1C(=O)NC1CCN(C(=O)OC(C)(C)C)CC1,9.32
16,COc1ccc(OC)c(NC(=O)c2[nH]c(C)c(C(C)=O)c2C)c1,16.8
17,COc1c(Cl)cnn(-c2cccc(C)c2)c1=O,12.9
18,CCOc1ccc(S(=O)(=O)N(C)c2ccc(OCC(=O)Nc3nc(-c4cc(OC)ccc4OC)cs3)cc2)cc1,3.54
19,CCN(CC)CCCN(C(=O)Cn1nnc(-c2ccc(OC)c(OC)c2)n1)C(C(=O)NC(C)(C)C)c1ccc(F)cc1 (stereo not drawn),-25.2
20,COc1ccc(OC)c(C2=NOC(C(=O)Nc3ccccc3SC)C2)c1 (stereo not drawn),10.3
21,Cc1cccc(NC(=O)N2CCN(Cc3ccc(Cl)cc3)CC2)c1,-4.25
22,O=C(Nc1cccc(S(=O)(=O)NC2=NCCC2)c1)C1CCCCC1,12.8

row,Structure (SMILES),"hERG current change (%, negative = inhibition) at 1uM [%]"
1,CCCN(C(=O)C1CC(=O)N(c2ccccc2C(C)CC)C1)C1CCS(=O)(=O)C1 (stereo not drawn),9.03
2,O=C(c1ccccn1)N1N=C2/C(=C/c3ccc(F)cc3)CCCC2C1c1ccc(F)cc1 (stereo not drawn),4.86
3,Cc1cccc(N2CCN(C(=O)CCN3C(=O)C4C5C=CC(C5)C4C3=O)CC2C)c1 (stereo not drawn),-3.28
4,CCCC(C(=O)NCCC(C)C)N(Cc1ccc(OC)cc1)C(=O)c1snc(C(N)=O)c1N (stereo not drawn),7
5,CCCc1nn2c(=O)cc(CSCC(=O)Nc3ccc(OC)cc3)nc2s1,9.83
6,O=C(Nc1ccc(Cl)c([N+](=O)[O-])c1)c1ccc2c(c1)OCCO2,0.993
7,Cc1cccc(C)c1NC(=O)CN(C)C(=O)CCC(=O)c1ccccc1,2.78
8,CCCOc1ccc(C(NC(=O)CC(C)C)NC(=O)CC(C)C)cc1OC,8.31
9,COc1ccccc1/C=C/c1onc(C)c1S(=O)(=O)N1CCC(C(=O)NC2CCCCCC2)CC1,11.7
10,COCCNS(=O)(=O)c1ccc(-c2ccc(S(=O)(=O)NCCOC)cc2)cc1,-3.64
11,Cc1ccc(C(=O)NCc2ccc(Cl)cc2)o1,6.84
12,[Br-].c1sc2[n+](c1C13CC4CC(CC(C4)C1)C3)CCS2,13.3
13,COc1ccc(N(CC(=O)NCc2ccc(C)cc2)S(=O)(=O)c2c(C)noc2C)cc1,12.7
14,COc1cccc(C(=O)Nc2ccc3ccccc3c2)c1,11.3
15,COc1ccc2c(c1)c(CC(=O)Nc1cc(C)ccc1C)c(C)n2C(=O)c1ccc(Cl)cc1,15.4
16,O=C(O)c1ccccc1SCC(=O)N1c2ccccc2Sc2ccccc21,13
17,CN(C(=O)c1cccc(N2C(=O)C3CC=CCC3C2=O)c1)C1CCCCC1 (stereo not drawn),-2.87
18,CNC(=S)N/N=C/c1cn(CCOc2ccc(OC)cc2)c2ccccc12,2.53
19,O=C(O)CCC(=O)N1N=C(c2ccco2)CC1c1cccs1 (stereo not drawn),9.68
20,Cc1cc(C)n2nc(-c3ccc(F)cc3)nc2n1,7.79
21,COc1ccccc1C(=O)N/C(=C/c1ccc2c(c1)OCO2)C(=O)Nc1ccc(C(=O)O)cc1,4.16
22,COc1ccccc1N1CCN(CC(=O)c2c[nH]c3ccccc23)CC1,-12.3

row,Structure (SMILES),"hERG current change (%, negative = inhibition) at 1uM [%]"
1,CCN(CC)C(=O)c1ccc(NC(=O)CNC(C)c2cccc3ccccc23)cc1 (stereo not drawn),19.1
2,Cc1ccc(OCC(=O)N2N=C(c3ccncc3)CC2(O)C(F)(F)F)cc1C (stereo not drawn),17.2
3,Nc1c2nc(-c3ccccc3Cl)[nH]c(=O)c2nc(=O)n1-c1ccccc1,6.12
4,CC(=O)Nc1ccc(NC(C)=O)s1,3.19
5,O=C(CCN1c2ccccc2Sc2ccccc21)Nc1ccccc1,5.5
6,CN(C)c1ccc(NC(=O)C2C3C=CC(C3)C2C(=O)O)cc1 (stereo not drawn),4.87
7,COc1ccc(CCN(C)C2CCCN(C(=O)CCC(F)(F)F)C2)cc1OC (stereo not drawn),-12.8
8,CCOC(=O)c1c(C)c(C(=O)NCc2ccccn2)c(C)n1CC,16.9
9,COc1cccc(-c2c(C(=O)N/N=C/c3ccoc3)nnn2-c2nonc2N)c1,12.8
10,COc1ccc(C(=O)N(Cc2ccccc2)c2cccc(C)c2)c(OC)c1OC,13.1
11,Cc1ccccc1OCc1nc2ccccc2n1C,11.9
12,CCOC(=O)N1CCN(c2nc(C(F)(F)F)nc3c(C)cc(C)cc23)CC1,-3.24
13,COc1cc(NS(=O)(=O)c2ccc(NC(=O)COc3cccc(C)c3)cc2)nc(OC)n1,15.3
14,CCOC1(OCC)N=C(N)C2(C#N)C(c3ccc(NC(C)=O)cc3)C12C#N (stereo not drawn),15.2
15,O=C(CSc1nnc(-c2ccccc2O)o1)N1CCc2ccccc2C1,13
16,Cc1ccc(N(CC(=O)NCc2ccncc2)S(C)(=O)=O)cc1Cl,14.3
17,Cc1cc2c(cc1S(=O)(=O)CCC(=O)NC1CCCCC1C)OCC(=O)N2 (stereo not drawn),-16.4
18,COCCNC(=O)C(c1ccc(C)o1)N(C(=O)c1snc(C(N)=O)c1N)c1cc(C)cc(C)c1 (stereo not drawn),3.18
19,CCN(CC)C(=O)Cn1cc(C(=O)C(=O)Nc2ccc3c(c2)OCCO3)c2ccccc21,9.88
20,COCCn1c(SCC(=O)Nc2cc(C)on2)nnc1-c1c[nH]c2ccccc12,2
21,COc1ccc(/C=c2/sc3n(c2=O)NC2(c4ccccc4)N(C)C(=O)N(C)C2(c2ccccc2)N=3)cc1 (stereo not drawn),7.68

# From publication PMC4336329 (PLoS ONE, 2015)
